Source: publication PMC7819943, “Rice protein-binding microarrays: a tool to detect cis-acting elements near promoter regions in rice”
Some of the results follow.

molecular target: T1, OsWOX13 (Oryza sativa, UniProt Q5QMM3 1-267); test: protein-binding microarray (RPBM); PBS, 2% BSA, 51.3 ng/ul salmon testes DNA, 50 uM zinc acetate, 200 nM TF, 25 C, 1 h; high values mean tight binding; settings: protein: recombinant; tags: N-terminal polyhistidine and DsRed monomer fusion (pET32a); label: CyDye5-dUTP incorporated in the synthesized complementary strand; 3' TTTTT single-stranded linker to array surface; dsDNA, one strand shown
T1 sequence: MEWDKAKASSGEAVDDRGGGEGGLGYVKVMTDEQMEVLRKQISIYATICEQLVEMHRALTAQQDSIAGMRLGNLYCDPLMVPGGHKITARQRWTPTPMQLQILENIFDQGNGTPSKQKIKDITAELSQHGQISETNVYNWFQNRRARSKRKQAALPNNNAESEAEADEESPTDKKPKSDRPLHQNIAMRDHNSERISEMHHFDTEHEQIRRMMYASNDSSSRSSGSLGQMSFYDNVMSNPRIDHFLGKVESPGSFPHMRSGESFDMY
Summary of the method: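 A custom Agilent array was converted to double-stranded form by primer extension with Cy5-dUTP and blocked with 2% BSA. Protein at 200 nM in PBS with 2% BSA, salmon testes DNA and 50 µM zinc acetate was applied for 1 h at 25 °C, followed by washing. The proteins were polyhistidine–DsRed N-terminal fusions of transcription factors, expressed in E. coli BL21-CodonPlus and Ni–NTA-purified. The binding signal is per-feature fluorescence intensity (arbitrary units) from an Axon 4000B scanner.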

| Sequence | binding signal |
| --- | --- |
| ATAATTGATTGCTTTTGATGATTTCACCCTTATTTTGCTGCGGAGTCACCTAGTGCAG | 65100 fluorescence intensity (a.u.) |
| AAATAATGTACAAAAGGTGATAGATGAAACAATAAAGTAGCGGAGTCACCTAGTGCAG | 4460 fluorescence intensity (a.u.) |
| GTCTGCTCATTTAATTGGTTTATAAGTGAGTTTACGGTCTCGGAGTCACCTAGTGCAG | 11600 fluorescence intensity (a.u.) |
| TCGATGATGTCACTGTCTTAATTGTCCCAAAATATATTTTCGGAGTCACCTAGTGCAG | 8090 fluorescence intensity (a.u.) |
| TTCCAATTAGTTCCTTACCATCGTATCATTTCCATCCCTACGGAGTCACCTAGTGCAG | 8410 fluorescence intensity (a.u.) |
| CATTGTAATTTGCAAAGCAGCAGCACCCATGCATCATATCCGGAGTCACCTAGTGCAG | 4120 fluorescence intensity (a.u.) |
| TCGGATTAATTAGGCTCAAAAGATTGTCTCGCAGTTTTCACGGAGTCACCTAGTGCAG | 18900 fluorescence intensity (a.u.) |
| ATATATATTGATTATATGTTTATTTTGTATGAAGATGTTCCGGAGTCACCTAGTGCAG | 34900 fluorescence intensity (a.u.) |
| ACTGATTATATTTGTGTAATTTAGTGATTAGCCATATCAGCGGAGTCACCTAGTGCAG | 47400 fluorescence intensity (a.u.) |
| CGCAAAATTTTAACTTTTCTGTCACATCGTTCTAATTTCACGGAGTCACCTAGTGCAG | 6030 fluorescence intensity (a.u.) |
| GCATTCTTATTGACAAATTGTTTACTTCTATCTGCCTTTTCGGAGTCACCTAGTGCAG | 8810 fluorescence intensity (a.u.) |
| ATATTAGATATGTTTAATTCCGTGATGCGTAATAATGCGTCGGAGTCACCTAGTGCAG | 3430 fluorescence intensity (a.u.) |
| AGGTCATCAATCAGAATGGAGATGGGAGATGGGGACTGTTCGGAGTCACCTAGTGCAG | 23000 fluorescence intensity (a.u.) |
| GATTTAATGGATCACCTGCTATTACAGATTCCTTCAGTTGCGGAGTCACCTAGTGCAG | 4210 fluorescence intensity (a.u.) |
| ACTCAATTAGCGTAAAACTAATAAGTATTAACTATTACAACGGAGTCACCTAGTGCAG | 9820 fluorescence intensity (a.u.) |
| AATTAAATTTAAGTTGCTGCGGGTGTCTAAATTTATATCGCGGAGTCACCTAGTGCAG | 9560 fluorescence intensity (a.u.) |
| GAATCTGATTGGAATGAAGAGAGTAAAATATTCTGCAGTCCGGAGTCACCTAGTGCAG | 40000 fluorescence intensity (a.u.) |
| AAGTGATGATTGCTTACTTGCAGGAGCAGGCGCTGTGTCTCGGAGTCACCTAGTGCAG | 33800 fluorescence intensity (a.u.) |
| TCCTGATCAAAGTTTGAAATTATTAGCACAGAGAATTTTGCGGAGTCACCTAGTGCAG | 5010 fluorescence intensity (a.u.) |
| TTATGTTTCTTAATTATTTAATTGGAAGTAAATTGAATTGCGGAGTCACCTAGTGCAG | 22200 fluorescence intensity (a.u.) |
| AGCCTTACATAATTTGATGCTTAACAATGATATCTTATTTCGGAGTCACCTAGTGCAG | 6290 fluorescence intensity (a.u.) |

| Sequence | binding signal |
| --- | --- |
| AATATACCATGATTTGACAATGTGATGATACAGTAAACATCGGAGTCACCTAGTGCAG | 10200 fluorescence intensity (a.u.) |
| CTCAATCCTCATCACTGTCTAATTAACCTCATTATCATTTCGGAGTCACCTAGTGCAG | 8840 fluorescence intensity (a.u.) |
| TACCGATAATTTATAAGTTATTGTTAGTCAAAGTTAATGGCGGAGTCACCTAGTGCAG | 27700 fluorescence intensity (a.u.) |
| GAAAATTGCATTTAGATCCAAGCGAGACTGATTCGAAAATCGGAGTCACCTAGTGCAG | 3970 fluorescence intensity (a.u.) |
| GACCGCGTCACTGATTGGCCTGCCTCTCCTCGCACCGGGGCGGAGTCACCTAGTGCAG | 12700 fluorescence intensity (a.u.) |
| TGCTCAAATAAATTAAAGTGATAGGAAATAGAAGTATTGGCGGAGTCACCTAGTGCAG | 7140 fluorescence intensity (a.u.) |
| TTGATTATCAGAGTAACAAATGCTGAATATTGACCGCCAACGGAGTCACCTAGTGCAG | 11400 fluorescence intensity (a.u.) |
| ACCCGAAAACCAATTATGATCACTAATCCATTTGTATTAACGGAGTCACCTAGTGCAG | 5580 fluorescence intensity (a.u.) |
| CTGGAGTTCAATCAAATGCTTGATGAGTTGGGCCCTCGTTCGGAGTCACCTAGTGCAG | 21800 fluorescence intensity (a.u.) |
| CAAACCAAACGACCAATTAAGCTATCTATTCATCTAGCTGCGGAGTCACCTAGTGCAG | 3420 fluorescence intensity (a.u.) |
| TTGATTGCCTATTCCTTTGCATTGAGAACGGCAGATAATGCGGAGTCACCTAGTGCAG | 40800 fluorescence intensity (a.u.) |
| ATTGTTTAACTCATTAATTTCTCCAGAGGCAACAGGACTACGGAGTCACCTAGTGCAG | 4280 fluorescence intensity (a.u.) |
| GCATTACAAATCATTATTGGCTCCATATGGATGACAGGGACGGAGTCACCTAGTGCAG | 6660 fluorescence intensity (a.u.) |
| CTTCTGTGATGGGAATGGACAGACACCCTGCTGCAGCTCTCGGAGTCACCTAGTGCAG | 10600 fluorescence intensity (a.u.) |
| CCAAACAATTTCAGTTTCATCTAAATTGGAGTGGAGCTGGCGGAGTCACCTAGTGCAG | 11400 fluorescence intensity (a.u.) |
| CAGCCCTACTATAGTAATTGGATTGGCTACCCATGGATCACGGAGTCACCTAGTGCAG | 6410 fluorescence intensity (a.u.) |
| ATTTTCCCTGATCATTAATTATTGCATCGTTACTAATTAACGGAGTCACCTAGTGCAG | 5500 fluorescence intensity (a.u.) |
| CCTGGTGAATTAATTGGGTAATTAATGAGCACACTGACGCCGGAGTCACCTAGTGCAG | 49500 fluorescence intensity (a.u.) |
| TCAAAATGTCTAATAATTTGGGACGGAGACACTAGTATTCCGGAGTCACCTAGTGCAG | 4940 fluorescence intensity (a.u.) |
| CGTGTTGATTGTGTCCTTGGCACCTTGCAATTCCATCCCCCGGAGTCACCTAGTGCAG | 26500 fluorescence intensity (a.u.) |
| GTATGTGATTTTCTTTAATTAGAGTTCTTGCCTAAGGTTGCGGAGTCACCTAGTGCAG | 38300 fluorescence intensity (a.u.) |
